In all, about 150,000 compounds went through this assay and about 540 (0.36%) showed an effect of 50% or more. Some of the results follow.

This experiment relates to Plasmodium falciparum. As to the kind of experiment: Primary screen in NF54 nanoGlo assay, in single point, at 2uM, 72h; a lower Z score goes with more inhibition. Particulars: timepoint 72 hour. The class given is functional, Erythrocyte.
A word on the % Inhibition: it is the change of the read-out against control, counted positive when it falls. For `CCC[C@H](NC(=O)c1ccccc1)c1nc(-c2ccnn2C)cs1`, the “% Inhibition” value stood at 4% and the Z score is given as -0.42.

As for `O=C(COc1ccccc1Cl)NCc1cc2n(n1)CCCNC2`, the “% Inhibition” value turned out to be 2% and the Z score is on record as -0.4.

Turning to `COC(=O)c1cn([C@H]2CCCC[C@@H]2O)nn1`, the “% Inhibition” value was -1% and the Z score was 0.14.

`COc1ccc(C)cc1S(=O)(=O)[C@H]1CS(=O)(=O)C[C@@H]1N1CCOCC1`: the “% Inhibition” value was found to be 6% and the Z score is listed as -0.79.

For `Cc1nn(C)c(C)c1CCC(=O)N(Cc1ccco1)[C@@H](C)C(C)C`, the “% Inhibition” value is 18% and the Z score is reported as -2.26.

Regarding `COC(=O)C1(NCc2ncccc2C)CCC1`, the “% Inhibition” value stood at 4% and the Z score is reported as -0.47.

For `O=C(Nc1nc2ccc(F)cc2s1)c1ccc(CN2CCOCC2)cc1`, the “% Inhibition” value worked out at 5% and the Z score was -0.72.

Regarding `CC[C@@H]1Oc2ccc(NC(=O)COC)cc2CN(CCc2ccc(F)cc2)C1=O`, the “% Inhibition” value is 13% and the Z score is -1.21.

Turning to `CCc1nc(N2CC(OCc3ccccc3F)C2)ncc1C`, the “% Inhibition” value turned out to be 2% and the Z score is -0.35.

Turning to `CC(C)C(=O)Nc1ccc2c(c1)nc1n2CC(=O)N(C[C@@H]2CCCN3CCCC[C@H]23)C1`, the “% Inhibition” value is -21% and the Z score was 2.69.

Turning to `OC12CCCCC1C(c1ccc3c(c1)OCO3)NCC2` (stereo unspecified), the “% Inhibition” value is on record as 1% and the Z score is recorded as -0.21.

Take `COc1cccc(CNc2ccc(N3CCOCC3)nc2)c1OC`: the “% Inhibition” value was -7% and the Z score worked out at 1.19.

Consider `c1ccc2[nH]c(Cn3cc([C@H]4CCOC4)nn3)cc2c1`, for which the “% Inhibition” value is recorded as -12% and the Z score amounted to 2.28.

On to `Cc1cc(NC(=O)CS(=O)(=O)C(C)(C)C)nn1C`, for which the “% Inhibition” value is given as -7% and the Z score came out at 0.9.

For `CCCC1(C)NC(=O)N(CCC2CCCCN2C)C1=O` (stereo unspecified), the “% Inhibition” value is recorded as -13% and the Z score worked out at 1.7.

Consider `c1ccc(CN2CCC[C@H]2c2nc(-c3ccnc4ccnn34)no2)cc1`, for which the “% Inhibition” value is on record as 1% and the Z score was -0.19.

As to `Cn1nc2nc(NC3CCCCC3)nc(-c3ccccc3Cl)c2c1N`, the “% Inhibition” value is given as -8% and the Z score worked out at 1.55.

Consider `CCCN(Cc1cc(-c2cccs2)on1)C(=O)Nc1ccccc1`, for which the “% Inhibition” value is given as -3% and the Z score turned out to be 0.44.

Turning to `CCC(C)(C)NC(=O)[C@H]1CCCN(C2CCN(Cc3ccncc3)CC2)C1`, the “% Inhibition” value is listed as 0% and the Z score is -0.03.

`Cc1n[nH]nc1C(=O)NCCCC[C@H]1CCCO1`: the “% Inhibition” value is given as -26% and the Z score came to 2.61.

Take `CC(C)Cn1cnnc1C1CCCN1CC(=O)NCC1CCCO1` (stereo unspecified): the “% Inhibition” value is recorded as 5% and the Z score is listed as -0.75.

Turning to `Cc1ccc(CNC(=O)CC(C)(C)Cc2nnc3c(=O)n(-c4cccc(F)c4)ccn23)cc1`, the “% Inhibition” value is -3% and the Z score is 0.42.

Regarding `Cc1cccc(OCC(=O)N2CC[C@H](N3C(=O)COC3=O)C2)c1`, the “% Inhibition” value is recorded as -10% and the Z score is on record as 1.65.

For `CN(CC(N)=O)S(=O)(=O)C[C@]12CC[C@@H](CC1=O)C2(C)C`, the “% Inhibition” value was -5% and the Z score turned out to be 0.83.

As to `O=C(c1cnnn1-c1cccc(F)c1)N1CCCC12CCC2`, the “% Inhibition” value is on record as -1% and the Z score was 0.15.

For the compound `COC[C@@]12CCN(C(=O)c3nccc4ccccc34)C[C@@H]1CN(C(C)=O)C2`, the “% Inhibition” value was -10% and the Z score came out at 1.2.

Take `CC(C)=CCN1C(=O)[C@@H]2CC[C@H]1CN(C(=O)Cc1cccnc1)C2`: the “% Inhibition” value is listed as -4% and the Z score turned out to be 0.8.

For `Cc1nn(C)c2ncc(-c3nc([C@H]4CCOC(C)(C)C4)no3)cc12`, the “% Inhibition” value is recorded as 5% and the Z score was -0.93.

Consider `O=C(Nc1ccc2c(c1)C(=O)NC2)c1ccc(=O)[nH]n1`, for which the “% Inhibition” value is -2% and the Z score stood at 0.33.

`Cc1cc(C)cc(NC(=O)CCc2c(C)[nH]c(=O)c(C#N)c2C)c1`: the “% Inhibition” value worked out at 7% and the Z score was -1.3.

In the case of `CC(=O)N1c2ccccc2C(=O)[C@@H]1N1CCN(c2ccc(Cl)cc2)CC1`, the “% Inhibition” value is on record as -3% and the Z score amounted to 0.45.

In the case of `COCCOCC(=O)N1CCc2c(c(-c3nncn3-c3ccccc3)nn2C)C1`, the “% Inhibition” value was 4% and the Z score was -0.54.

Take `CC[C@H](NCC1OCCO1)c1cccs1`: the “% Inhibition” value is reported as -5% and the Z score stood at 0.63.

Turning to `Cc1c(Cl)cccc1S(=O)(=O)N(Cc1ccc(F)cc1)c1ccc2[nH]c(=O)[nH]c2c1`, the “% Inhibition” value is listed as 7% and the Z score is listed as -0.92.

Turning to `CC(=O)N1CC[C@H](C(=O)Nc2ccc3[nH]ncc3c2)C1`, the “% Inhibition” value is -11% and the Z score is reported as 1.47.

Regarding `Cc1onc(C2CC2)c1C(=O)NCc1cccnc1OCC(F)F`, the “% Inhibition” value is listed as -5% and the Z score is 0.62.

As for `Cn1c(Nc2c3ccccc3nc3ccccc23)cc(=O)n(C)c1=O`, the “% Inhibition” value stood at 29% and the Z score is listed as -3.22.

As for `CCN(CCc1nccs1)Cc1nccn1C`, the “% Inhibition” value was -4% and the Z score is 0.38.

For `CC(C)(C)CC(=O)N[C@H]1C[C@H]2C(=O)Nc3cc(Cl)ccc3C(=O)N2C1`, the “% Inhibition” value worked out at 31% and the Z score is listed as -3.48.

Regarding `CN(C(=O)c1csc2ccccc12)[C@H]1CS(=O)(=O)C[C@@H]1O`, the “% Inhibition” value was -6% and the Z score is listed as 0.57.

With `O=C(NCCCCN1CCOCC1)NCC1(c2ccccc2)CC1`, the “% Inhibition” value was -36% and the Z score is recorded as 4.18.

On to `CC(C)c1nnc(Cn2cnc3c2c(=O)n(C)c(=O)n3C)s1`, for which the “% Inhibition” value was -1% and the Z score is recorded as 0.08.

In the case of `O=S1(=O)NC(CN2CCN(CC(F)F)CC2)=Nc2ccccc21`, the “% Inhibition” value was -4% and the Z score was 0.8.

The record behind these values is ChEMBL document CHEMBL4888484, “Replenishing the malaria drug discovery pipeline: Screening and hit evaluation of the MMV Hit Generation Library 1 (HGL1) against asexual blood stage Plasmodium falciparum ,using a nano luciferase reporter read-out” (2022).
